Measurements from PubChem BioAssay (NCI).
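Cultured in 96-well plates, cells were exposed to test compound for 48 hours across five concentrations. GI50: concentration for 50% inhibition of growth. TGI is the concentration that stops growth completely.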

System: NCI-H322M lung
Assay: inhibition of tumour cell growth, NCI panel, 48 h

| SMILES | TGI [µM] | GI50 [µM] |
| --- | --- | --- |
| CC(=O)O[C@H]1CCC2[C@@H]3CCC4=C(O)C(=O)C(C#N)C[C@]4(C)C3CC[C@@]21C (stereo partly specified) | > 100 | – |
| CCCCCCCC/C=C\CCCCCCCC(=O)O | > 500 | – |
| O=C(O)Cc1ccc(Oc2nc3ccccc3nc2C(=O)O)cc1 | > 100 | – |
| COC(=O)NC1(NC(=O)OC)NC(=O)c2cc(OC)c(OC)c(OC)c2N1 | > 100 | – |
| O=C(Cc1csc(N=Nc2c(O)[nH]c3ccccc23)n1)Nc1ccccc1 | > 100 | – |
| CS(=O)(=O)CCNCc1ccc(-c2ccc3ncnc(Nc4ccc(OCc5cccc(F)c5)c(C(F)(F)F)c4)c3c2)o1 | 15.6 | 4.59 |
| O=C1NC(N2CCCCC2)=N/C1=C\c1cccs1 | > 100 | – |
| O=C(Nc1c(C(F)(F)F)cc(-c2ccccc2)[nH]c1=O)N1CCOCC1 | > 100 | – |
| CN1C(c2ccccc2)CS(=O)(=O)CS1(=O)=O (stereo unspecified) | > 100 | – |
| CC=CCOc1cc(NC(=S)OC(C)C)ccc1Cl (mixture of isomers) | 46.2 | – |
| NC(=O)c1coc(C2OC(CO)C(O)C2O)n1 (stereo unspecified) | > 100 | – |
| Nc1ncc(Cl)c(NCC2(CO)CC(CCc3ccccc3)C2)n1 (stereo unspecified) | > 100 | – |
| Cc1nc2c(nc1C)-c1c(c3c(n1C)C(=O)CCC3)C(=O)C2=O | 3.15 | – |
| COc1cc(C=C2C(C)=NN(c3cccc(Cl)c3)C23C(Cl)C(=O)N3c2nc3ccccc3s2)ccc1O (stereo unspecified) | > 100 | – |
| CCCCOC(=O)NC(Nc1cccc(C(F)(F)F)c1)(C(F)(F)F)C(F)(F)F | > 100 | – |
| Cc1cccc(CC(Cc2c(C)cccc2C(=O)O)C(=O)O)c1 (stereo unspecified) | > 100 | – |
| O=C(/C=C1\C[C@H]2C=Nc3ccccc3C(=O)N2C1)NCCCCNC(=O)/C=C1\C[C@H]2C=Nc3ccccc3C(=O)N2C1 | 31.6 | – |
| Cc1nc(C(N)=S)sc1C(/C=C/c1ccc(Cl)c(Cl)c1)=N/NC(C)(C)C | > 100 | – |
| CCOC(=O)c1c(C)cc(=O)n2c1[nH]c1ccccc12 | > 100 | – |
| CC(C)CCC[C@@H](C)C1CCC2[C@@H]3CC=C4C[C@@H](C(=O)NCC[N+](C)(C)CCCS(=O)(=O)[O-])CC[C@]4(C)C3CC[C@@]21C (stereo partly specified) | 30.4 | – |
| Cc1ccccc1C(=O)Oc1ccc(O)cc1 | > 100 | – |
| C=C1C(=O)C[C@@]23CCC[C@@]12CC(OCOC)C3 (stereo partly specified) | 26.1 | – |
| CN1CCN(c2cc(C(=O)Nc3cc4cc(-c5cnn(C)c5)ccc4cn3)ccn2)CC1 | 11.9 | 0.146 |
| CN(CCc1ccccn1)c1nc(=[N+](C)C)ss1 | > 100 | – |
| O=C(O)c1cc2ccccc2c(N=Nc2cc(C(F)(F)F)ccc2Cl)c1O | > 100 | – |
| Cc1c2c(n(CCc3ccccc3)c1C)N(C)N=C(C#N)S2(=O)=O | > 100 | – |

| SMILES | TGI [µM] | GI50 [µM] |
| --- | --- | --- |
| CC(=O)OC1CC2Oc3ccc(C)cc3C(C)(O2)C1=O (stereo unspecified) | > 100 | – |
| O=[N+]([O-])c1ccc(/C=N/Nc2nnc3c4ccccc4c4ncccc4c3n2)o1 | > 10 | – |
| Cc1ccc(C2NC(=O)c3ccccc3N2)s1 (stereo unspecified) | > 100 | – |
| COc1ccc(/C=C2\CCC(C)/C(=C\c3ccc(OC)c(OC)c3)C2=O)cc1OC (stereo unspecified) | 37.9 | – |
| C/C(=N\Nc1nc2ccccc2n1C)c1cnccn1 | > 100 | – |
| O=C(CCCNc1nc(-c2ccccc2)cs1)c1cccs1 | > 100 | – |
| COc1ccc(C[C@@H]2NC[C@@H](O)[C@@H]2OC(C)=O)cc1 | – | 1.24 |
| CN(C)CC1COC2Cc3ccccc3C1O2 (stereo unspecified) | > 100 | – |
| CC(=O)Oc1cc2c(c3ncccc13)OC(C)(C)C2 | 26.6 | – |
| CC(C)C1CC2C(=O)N(c3ccccc3)C(=O)C2c2[nH]c3ccccc3c21 (stereo unspecified) | > 100 | – |
| Cc1[nH]c2ccccc2c1-c1cc(-c2cc(-c3c(C)[nH]c4ccccc34)nc(N)n2)nc(N)n1 | > 100 | – |
| NCCN.NCCN.O=C[O-].O=C[O-].[Co+3].[O-][Cl+3]([O-])([O-])[O-] | > 100 | > 100 |
| Cc1ccc2c(c1)C(=O)N1CCC[C@H]1C=N2 | > 100 | – |
| CN(C)CCSc1cccc(-c2cc(-c3cccc(SCCN(C)C)c3)nc(SCCN(C)C)n2)c1 | 4.28 | – |
| CC(C)OP(=O)(OC(C)C)/C(C#N)=C/c1ccco1 | > 100 | – |
| Cc1ccc([N+](=O)[O-])cc1S(=O)(=O)Nc1ccc(C2=NNC(c3ccccc3O)C2)cc1 (stereo unspecified) | 90.1 | – |
| O=[N+]([O-])c1ccccc1NC1c2ccccc2Oc2ccccc21 | > 100 | > 100 |
| Cc1cc(S(=O)(=O)/N=C(\[N-]S(=O)(=O)c2ccc(Cl)cc2)[n+]2ccc(N(C)C)cc2)c(S)cc1Cl | > 100 | – |
| O=C(NNC(c1ccccc1)C(F)(F)F)c1ccncc1 (stereo unspecified) | > 100 | – |
| N=c1c2c(=S)n(-c3ccccc3)c(=S)n(-c3ccccc3)c2nc(SCCCN2CCN(c3cccc(Cl)c3)CC2)n1-c1ccccc1 | > 100 | – |
| O=C(Nc1cccc(Cc2cccc(NC(=O)c3ccccc3)c2)c1)c1ccccc1 | > 100 | – |
| Cc1ccc(S(=O)(=O)N2C[C@](O)(c3ccccc3)[C@H]2C)cc1 | > 100 | – |
| CC(C)CC(=O)Nc1n[nH]c2c1CN(C(=O)C1CCN(C)CC1)C2(C)C | > 10 | 2.14 |
| O=C1N2CCc3c([nH]c4ccccc34)C23CC2CCCCC12S3 (stereo unspecified) | > 100 | – |
| COc1cc(C)cc2c1c(=O)c1ccccc1n2C | > 100 | – |
